59 compounds from PubChem BioAssay AID485344 (National Center for Advancing Translational Sciences (NCATS), 2010) can be followed below.

Among all 340,000 compounds or so, about 6,900 (2%) were called active. No stated cut-off is given here; in the data, active means inhibition above about 30%; inactive means below that, where a call was filed. The entries are a selection whose mix differs from that of the whole data set. Entries without a call were filed so in the source.

Usually inhibition stands for the drop in the measured response relative to a control, in per cent.

Sequence of UniProt P14416 (P14416 whole entry, looked up): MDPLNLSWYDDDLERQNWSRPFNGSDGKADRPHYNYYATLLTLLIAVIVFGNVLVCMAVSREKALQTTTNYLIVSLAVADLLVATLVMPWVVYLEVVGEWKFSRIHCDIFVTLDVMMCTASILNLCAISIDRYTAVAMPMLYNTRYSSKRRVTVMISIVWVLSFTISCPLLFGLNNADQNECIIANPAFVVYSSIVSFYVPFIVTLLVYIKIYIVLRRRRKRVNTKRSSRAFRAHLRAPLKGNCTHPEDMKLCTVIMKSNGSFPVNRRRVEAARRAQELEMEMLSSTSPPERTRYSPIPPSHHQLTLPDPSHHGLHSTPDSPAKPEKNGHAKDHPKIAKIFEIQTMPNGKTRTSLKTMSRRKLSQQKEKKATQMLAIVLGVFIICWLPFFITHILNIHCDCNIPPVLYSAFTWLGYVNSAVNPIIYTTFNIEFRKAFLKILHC

For this assay, the target named is D(2) dopamine receptor (Homo sapiens) (UniProt P14416). Kind of assay: HTS Assay for Allosteric Antagonists of the Human D2 Dopamine Receptor: Primary Screen for Antagonists. Further: 0% is about no effect. The note with it: HEK293 TREx D2 cells, calcium flux, dopamine EC80; at 10 µM; stronger effect = higher value. In outline:
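Compounds are added to dye-loaded, induced HEK293 T-REx cells coupled to calcium release via D2; after a 3 min kinetic read an EC80 dopamine stimulus is given and fluorescence is recorded for 3 more min.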
Turning to `Cc1cccc(C)c1NC(=O)CN(C)S(=O)(=O)c1ccc2c(c1)n(C)c(=O)c(=O)n2C`, the inhibition is -13.5%.
Turning to `CCSc1nc(=O)c2c(n1C)NC(=O)CC2c1ccc(O)cc1OC` (centres undefined), the inhibition is 25.6%.
On to `CCc1ccc(OCC(=O)NCC(c2ccc(OC)cc2)N2CCOCC2)cc1` (centres undefined), for which the inhibition came out at 6.33%.
For the compound `Nc1cc(S(=O)(=O)N2CCCCC2)ccc1N1CCOCC1`, the inhibition is active: 31.5%.
For the compound `COc1ccc(-n2c(=O)c3sc4ccccc4c3n(Cc3ccccc3)c2=O)cc1`, the inhibition is 9.54%.
`Cc1ccc2c(CNC3CCC(C)CC3)c(C(=O)O)n(Cc3cccc(F)c3)c2c1` (centres undefined): the inhibition worked out at 0.761%.
Turning to `Cc1cccc(C(=O)N(Cc2nc(-c3ccc(Cl)cc3)no2)C(C)C)c1`, the inhibition was -13.5%.
The value for `CC(=O)c1cccc(NC(=O)Cn2c(C)c3cnn(-c4ccccc4)c(=O)c3c2C)c1` was -6.56%.
In the case of `CC1CCN(c2nc3ccc(C(=O)NCc4ccc(Cl)cc4)cc3s2)CC1`, the inhibition worked out at 0.341%.
For `COc1cc2c(cc1OC)C(c1ccc(F)cc1)N(c1ccc(F)cc1)C(=O)C2` (centres undefined) the value was -4.19%.
For the compound `COc1cc(NC(=O)c2cc3nc(-c4ccccc4)cc(-c4ccccc4)n3n2)c(OC)cc1Cl`, the inhibition was 9.04%.
For `COc1ccc(C2CC(=O)N(CC(=O)Nc3ccc(C(F)(F)F)cc3)c3ccccc3S2)cc1` (centres undefined) the value was -7.95%; for `COC(=O)c1ccc(OC)c(Cn2c(=O)n(-c3ccc(C)cc3)c(=O)c3c2cnn3C)c1`, -2.48%.
For `COc1cccc(NC(=O)C2CCN(S(=O)(=O)c3cc(-c4noc(C)n4)ccc3C)CC2)c1` the value was 18.1%; for `COc1cc(-c2noc(-c3cc(C)[nH]n3)n2)cc(OC)c1OC`, -0.34%.
Consider `CCOc1ccc(NC(=O)c2cn3c4c(ccc(Cl)c4c2=O)OC(C)C3)cc1` (centres undefined), for which the inhibition is -0.241%.
For `CCn1cc(C(=O)N2CCN(c3ccccc3)CC2)c(=O)c2cc(S(=O)(=O)N3CCC(C)CC3)ccc21` the value was 0.239%; for `COc1ccc(C2CC(=O)c3c([nH]c(C(=O)OCCOc4ccccc4)c3C)C2)cc1OC` (centres undefined), 15.1%; for `COc1cccc(CNC(=O)c2cccn2-c2nnc(N3CCCC3)s2)c1`, -11.1%.
Turning to `Cc1ccc(-c2noc(C3CC(=O)N(c4ccc5c(c4)OCCO5)C3)n2)cc1` (centres undefined), the inhibition was determined as 11.6%.
As for `COc1ccc(CNC(=O)C2CCN(S(=O)(=O)c3cn(C)cn3)CC2)cc1`, the inhibition is -17.6%.
For `COc1ccc(NC(=O)N(Cc2ccco2)C2CCN(C(C)=O)CC2)c(OC)c1` the value was 13.7%; for `COc1ccc2c(C)c(CCC(=O)NCc3ccc(OC)c(OC)c3)c(=O)oc2c1`, 16.5%; for `Cc1cc(-c2nc3ccccc3s2)ccc1NC(=O)c1cc(Cl)ccc1Cl`, -7.88%.
The value for `COc1ccc(C(C)(C)C)cc1NC(=O)CCCn1c(=O)oc2ccccc21` was active: 50.8%; that for `COc1ccccc1/C=C/CN1CCC(Oc2cc(C(=O)NC3CC3)ccc2OC)CC1` was active: 59.2%.
For `CCc1ccc(N2C(=O)CS(=O)(=O)C23C(=O)N(Cc2ccccc2F)c2ccccc23)cc1` (centres undefined) the value was 0.916%; for `CCOc1cc(C2c3c(oc4ccccc4c3=O)C(=O)N2Cc2ccccc2Cl)ccc1O` (centres undefined), 22.9%; for `Cc1sc(NC(=O)COc2ccc(C(C)(C)C)cc2)c(C(=O)OC(C)C)c1C`, 3.62%.
`Cc1ccc(NC(=O)C(C)N2CCCC2)cc1Cl` (centres undefined): the inhibition is active: 33.1%.
Turning to `CCOC(=O)c1scc(-c2ccc(C)cc2)c1S(=O)(=O)Nc1ccc(F)c(F)c1`, the inhibition was found to be 3.64%.
For `Cn1c(=O)n(CCCc2ccccc2)c(=O)c2c1nc1n2CCN1c1ccccc1` the value was -25.2%; for `CCN(Cc1ccccc1)C(=O)CCS(=O)(=O)c1ccc2c(c1)oc(=O)n2C`, -7.81%; for `COc1ccc2c(c1)c(=O)c(C(=O)c1ccc(Cl)cc1)cn2CC(=O)Nc1ccc2c(c1)OCO2`, -21.4%.
For `CC(C)(C)c1ccc(C(=O)Nc2ccc([N+](=O)[O-])cn2)cc1` the value was active: 35.6%; for `Cc1c(Cl)cccc1NC(=O)NCCOCCn1c(=O)oc2ccccc21`, -20.6%.
For `CCOC(=O)c1ccc(NC(=O)CN2C(=O)CC(c3ccc(C)c(C)c3)=Nc3ccccc32)cc1` the value was 23%.
Take `Cc1cc(NC(=O)CN2C(=O)CSc3ccc(S(=O)(=O)N(C)C)cc32)ccc1Br`: the inhibition was -1.9%.
Regarding `CCOC(=O)c1c(NC(=O)c2nc(SC)ncc2Cl)sc(C)c1C`, the inhibition was determined as 7.09%.
The value for `CSc1ccc(CCNC(=O)c2ccc3c(c2)nc2n3CCOC2)cc1` was -24.1%.
Regarding `Cc1ccc(NC(=O)c2ccc(F)c(S(=O)(=O)N3CCc4ccccc4C3)c2)cc1F`, the inhibition is 1.56%.
Turning to `CC(C)c1nnc(NC(=O)c2nc(S(=O)(=O)Cc3ccccc3)ncc2Cl)s1`, the inhibition was -7.78%.
For `COc1ccc(Cl)cc1NC(=O)CSc1cn(CC(=O)N2CCCC2)c2ccccc12` the value was 1.21%.
Regarding `COc1ccccc1CNC(=O)c1cc2c(=O)n(Cc3cccs3)ccc2nc1C`, the inhibition came out at 9.36%.
As for `COc1ccc(-n2ncc3c2ncn2nc(-c4ccc(Cl)cc4Cl)nc32)cc1`, the inhibition is 11.8%.
Regarding `COc1cccc(OC)c1Cn1nnc2c(=O)[nH]c(C3CCN(C(=O)c4ccccc4)CC3)nc21`, the inhibition is 5.97%.
As for `COc1ccc(CCNC(=O)CSCc2nc(-c3ccc(OC)c(OC)c3)oc2C)cc1OC`, the inhibition was 9.05%.
The value for `COc1cc(OC)c(NC(=O)c2ccc3c(Cl)c4c(nc3c2)CCCC4)cc1Cl` was -18.1%; that for `CN1C(=O)c2ccccc2Sc2ccc(NC(=O)COc3ccc(Cl)cc3)cc21` was 16.8%.
The value for `COCCNc1ccc(-c2nc(-c3cccc(C)c3)no2)cc1[N+](=O)[O-]` was 24.6%; that for `CC1CCCN(C(=O)Cn2c(=O)n(CC3CCC(C(=O)NC(C)C)CC3)c(=O)c3sccc32)C1` (centres undefined) was 2.14%; that for `Cn1c(-n2cccc2)c(-c2c(-c3ccc(F)cc3)[nH]c3c2c(=O)[nH]c(=O)n3C)c(=O)[nH]c1=O` was -6.45%.
For `CCOc1ccc(NC(=O)Cn2c(=O)n(Cc3nc(-c4ccccc4)no3)c(=O)c3ccccc32)cc1` the value was 1.28%.
Take `COCc1c(C(=O)N2CCN(Cc3ccc4c(c3)OCO4)CC2)oc2ccccc12`: the inhibition is active: 70.5%.
`CCOC(=O)C1=C(CS(=O)(=O)c2ccc(C)c(C)c2)NC(=O)NC1c1ccccc1OCC` (centres undefined): the inhibition was -5.48%.
The value for `O=C(Cn1c(=O)ccc2cc(S(=O)(=O)N3CCCC3)ccc21)NCc1ccc(F)cc1` was -8.23%; that for `COc1cccc(C2Nc3ccccc3-c3nnc(SCc4ccccc4)nc3O2)c1OC` (centres undefined) was 20.2%.
In the case of `Cc1ccc(S(=O)(=O)c2nc(-c3ccccc3)oc2SCC(=O)NC2CCCCC2)cc1`, the inhibition was -3.57%.
As for `COc1ccc(NC(=O)C(CC(C)C)NS(=O)(=O)c2ccc3c(c2)oc(=O)n3C)cc1Cl` (centres undefined), the inhibition was -25.9%.
